# In the supplement of paper PMC8728848:
# Some of the results follow.
# Experiments:
# Assay in all cases: glycan array binding signal (z-score within array); higher = stronger binding
# Details in all cases: glycan notation: IUPAC condensed, linker removed
# [1] = biological target: Gal3S(b1-4)Glc
# In short: (§1)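 Negative Z-scores can be read as non-binding. The Z-score is calculated within each array and then averaged across arrays of one protein sequence at different concentrations or buffers and across linkers. Arrays, 3228 in all, were curated from the Consortium for Functional Glycomics database and kept only where the protein sequence was available.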
# [2] = biological target: Gal3S(b1-4)Glc6S
# In short: as §1
# [3] = biological target: Gal3S(b1-4)GlcNAc
# In short: as §1
# [4] = biological target: Gal3S(b1-4)[Fuc(a1-3)]Glc6S
# In short: as §1
# [5] = biological target: Gal3S(b1-4)[Fuc(a1-3)]GlcNAc
# In short: as §1
# [6] = biological target: Gal3S(b1-4)[Fuc(a1-3)]GlcNAc6S
# In short: as §1
# [7] = biological target: Gal3S4S(b1-4)GlcNAc
# In short: as §1
# [8] = biological target: Gal3S6S(b1-4)GlcNAc
# In short: as §1
# [9] = biological target: Gal3S6S(b1-4)GlcNAc6S
# In short: as §1
# [10] = biological target: Gal4S(b1-4)GlcNAc
# In short: as §1
# [11] = biological target: Gal4S6S(b1-4)GlcNAc
# In short: as §1
# [12] = biological target: Gal6P(b1-4)GlcNAc
# In short: as §1
# [13] = biological target: Gal6S(b1-3)GlcNAc
# In short: as §1
# [14] = biological target: Gal6S(b1-3)GlcNAc6S
# In short: as §1
# [15] = biological target: Gal6S(b1-4)Glc
# In short: as §1
# [16] = biological target: Gal6S(b1-4)Glc6S
# In short: as §1
# [17] = biological target: Gal6S(b1-4)GlcNAc
# In short: as §1
# [18] = biological target: Gal6S(b1-4)GlcNAc6S
# In short: as §1
# [19] = biological target: GalNAc(a1-3)Gal
# In short: as §1
# [20] = biological target: GalNAc(a1-3)GalNAc
# In short: as §1
# [21] = biological target: GalNAc(a1-3)GalNAc(a1-3)Gal(a1-4)Gal(b1-4)GlcNAc
# In short: as §1
# [22] = biological target: GalNAc(a1-3)GalNAc(b1-3)Gal(a1-4)Gal(b1-4)Glc
# In short: as §1
# [23] = biological target: GalNAc(b1-3)Gal
# In short: as §1
# [24] = biological target: GalNAc(b1-3)Gal(a1-4)Gal(b1-4)GlcNAc
# In short: as §1
# [25] = biological target: GalNAc(b1-3)Gal(a1-4)Gal(b1-4)GlcNAc(b1-3)Gal(b1-4)Glc
# In short: as §1
# [26] = biological target: GalNAc(b1-3)Gal(a1-6)Gal(b1-4)Glc
# In short: as §1
# [27] = biological target: GalNAc(b1-3)GalNAc
# In short: as §1
# [28] = biological target: GalNAc(b1-3)GlcNAc
# In short: as §1
# [29] = biological target: GalNAc(b1-4)Gal(b1-4)Glc
# In short: as §1
# [30] = biological target: GalNAc(b1-4)GlcNAc
# In short: as §1
# [31] = biological target: GalNAc(b1-4)GlcNAc(b1-2)Man
# In short: as §1
# [32] = biological target: GalNAc(b1-4)GlcNAc(b1-2)Man(a1-3)[GalNAc(b1-4)GlcNAc(b1-2)Man(a1-6)]Man(b1-4)GlcNAc(b1-4)GlcNAc
# In short: as §1
# [33] = biological target: GalNAc(b1-4)GlcNAc(b1-3)GalNAc(b1-4)GlcNAc
# In short: as §1
# [34] = biological target: GalNAc(b1-4)GlcNAc6S
# In short: as §1
# [35] = biological target: GalNAc(b1-6)GalNAc
# In short: as §1
# [36] = biological target: GalNAc3S(b1-4)GlcNAc
# In short: as §1
# [37] = biological target: GalNAc3S(b1-4)GlcNAc3S
# In short: as §1
binder,measurement,setting,value
"ECL (Erythrina cristagalli), Q6YD91 (protein) VETISFSFSEFEPGNNDLTLQGAAIITQSGVLQLTKINQNGMPAWDSTGRTLYTKPVHIWDMTTGTVASFETRFSFSIEQPYTRPLPADGLVFFMGPTKSKPAQGYGYLGVFNNSKQDNSYQTLAVEFDTFSNPWDPPQVPHIGIDVNSIRSIKTQPFQLDNGQVANVVIKYDASSKILLAVLVYPSSGAIYTIAEIVDVKQVLPEWVDVGLSGATGAQRDAAETHDVYSWSFHASLPETND",glycan array binding signal (z-score),[1],-0.22
same,glycan array binding signal (z-score),[2],-0.281
same,glycan array binding signal (z-score),[3],-0.252
same,glycan array binding signal (z-score),[4],0.786
same,glycan array binding signal (z-score),[5],-0.248
same,glycan array binding signal (z-score),[6],-0.309
same,glycan array binding signal (z-score),[7],-0.359
same,glycan array binding signal (z-score),[8],-0.335
same,glycan array binding signal (z-score),[9],-0.52
same,glycan array binding signal (z-score),[10],-0.487
same,glycan array binding signal (z-score),[11],-0.421
same,glycan array binding signal (z-score),[12],-0.564
same,glycan array binding signal (z-score),[13],-0.688
same,glycan array binding signal (z-score),[14],-0.564
same,glycan array binding signal (z-score),[15],-0.326
same,glycan array binding signal (z-score),[16],-0.216
same,glycan array binding signal (z-score),[17],-0.447
same,glycan array binding signal (z-score),[18],-0.595
same,glycan array binding signal (z-score),[19],-0.142
same,glycan array binding signal (z-score),[20],-0.439
same,glycan array binding signal (z-score),[21],-0.308
same,glycan array binding signal (z-score),[22],-0.353
same,glycan array binding signal (z-score),[23],-0.135
same,glycan array binding signal (z-score),[24],-0.301
same,glycan array binding signal (z-score),[25],-0.295
same,glycan array binding signal (z-score),[26],-0.225
same,glycan array binding signal (z-score),[27],-0.186
same,glycan array binding signal (z-score),[28],-0.192
same,glycan array binding signal (z-score),[29],-0.262
same,glycan array binding signal (z-score),[30],0.302
same,glycan array binding signal (z-score),[31],0.689
same,glycan array binding signal (z-score),[32],0.796
same,glycan array binding signal (z-score),[33],3.31
same,glycan array binding signal (z-score),[34],2.18
same,glycan array binding signal (z-score),[35],-0.385
same,glycan array binding signal (z-score),[36],-0.481
same,glycan array binding signal (z-score),[37],-0.603
